Source: PubChem BioAssay AID1768 (National Center for Advancing Translational Sciences (NCATS), 2009)
About 620 (0.23%) of roughly 270,000 compounds were called active. Inconclusive results, whose numbers are uncertain, are shown with a selection of clear calls. Calls follow the shape of the dose curve; as a rule, active = well fitted inhibition curve with a large enough effect in the polarisation, with a control signal flat (not every such curve was filed as active); inconclusive = small, poorly fitted or top-dose-only effect, or effect the other way, or a change in a side signal; inactive = no such curve, though single readings can be large or run the other way; the % refers to the polarisation. Potencies of inconclusive entries are doubtful fits and often do not repeat. “Side channel” marks fits to a control or component signal instead of the main read-out.

Target: Menin (Homo sapiens) (UniProt O00255)
Sequence of UniProt O00255 (O00255 whole entry, looked up): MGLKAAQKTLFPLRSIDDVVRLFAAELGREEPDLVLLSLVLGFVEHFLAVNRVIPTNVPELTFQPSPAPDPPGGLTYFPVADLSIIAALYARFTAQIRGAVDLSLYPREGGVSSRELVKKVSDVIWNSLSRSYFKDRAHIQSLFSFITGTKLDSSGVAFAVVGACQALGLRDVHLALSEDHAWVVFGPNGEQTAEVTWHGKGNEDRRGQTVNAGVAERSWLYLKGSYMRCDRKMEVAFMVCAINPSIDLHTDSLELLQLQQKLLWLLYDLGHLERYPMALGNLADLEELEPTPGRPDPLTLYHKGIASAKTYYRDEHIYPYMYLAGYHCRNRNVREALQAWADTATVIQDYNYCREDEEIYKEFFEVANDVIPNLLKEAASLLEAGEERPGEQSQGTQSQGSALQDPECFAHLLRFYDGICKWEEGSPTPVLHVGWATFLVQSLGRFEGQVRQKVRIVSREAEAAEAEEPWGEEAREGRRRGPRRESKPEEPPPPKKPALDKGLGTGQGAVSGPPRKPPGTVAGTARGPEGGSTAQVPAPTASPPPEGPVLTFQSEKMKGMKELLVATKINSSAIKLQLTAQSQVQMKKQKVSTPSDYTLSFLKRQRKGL
Assay: qHTS Assay for Inhibitors Targeting the Menin-MLL Interaction in MLL Related Leukemias: Competition With Texas Red Labeled MLL-derived Mutant Peptide
Settings: fluorescence polarization; series mostly up to 61.6 µM
Potency is read from the fitted curve at half-maximal effect; tags tell the direction and shape of the fitted curve or compound fluorescence and quenching.

Row | SMILES | Potency
1 | COc1ccc(OC)c(/C(O)=C/C(=O)C(=O)Nc2ccccc2OC)c1 | inconclusive: 39.8 µM [quencher, side channel, single point]
2 | Cc1cccc(S(=O)(=O)C(C#N)c2nc3ccccc3nc2N2CC(C)OC(C)C2)c1 (configuration not stated) | inconclusive: 22.4 µM [quencher, side channel, partial curve, poor fit]
3 | Cc1c(NC(=S)NC(NC(=O)CC(C)C)C(Cl)(Cl)Cl)c(=O)n(-c2ccccc2)n1C (configuration not stated) | inconclusive: 22.4 µM [inhibitor, partial curve]
4 | O=C(O)c1ccc2c(c1Sc1ccccc1)C(=O)c1ccccc1C2=O | inconclusive: 31.6 µM [quencher, side channel, single point]
5 | O=C(Nc1nc(-c2ccc(S(=O)(=O)N3CCCCCC3)cc2)cs1)c1ccccc1 | inconclusive: 7.94 µM [inhibitor, full curve]
6 | COC(=O)c1sccc1NC(=O)c1ccc(Cl)s1 | inconclusive: 39.8 µM [inhibitor, single point]
7 | CN(C)C(=O)c1ccc(-c2nnc(NCc3ccccc3)c3ccccc23)cc1 | inconclusive: 10 µM [fluorescent, side channel, partial curve]
8 | COC(=O)C1=C(O)/C(=C\c2ccc(CNC(=O)C(=O)Nc3ccc(C)c(C)c3)o2)N=C1C | inconclusive: 35.5 µM [quencher, side channel, single point]
9 | Oc1c(Br)cc(/C=N/Nc2nncc3ccccc23)cc1Br | inconclusive: 3.16 µM [quencher, side channel, full curve]
10 | CCCN(CCC)CCCNC(=O)c1ccc2c(Cl)c3c(nc2c1)CCC3 | inconclusive: 3.16 µM [inhibitor, partial curve]
11 | O=C(O)c1ccc(N2C(=O)/C(=C/c3ccc(-c4ccc([N+](=O)[O-])cc4)o3)C=C2c2ccccc2)cc1 | inconclusive: 8.91 µM [inhibitor, partial curve]
12 | N#CCc1ccc(NC(=O)c2ccc(S(=O)(=O)N3CCCC3)cc2)cc1 | inconclusive: 39.8 µM [fluorescent, single point]
13 | Cc1ncc([N+](=O)[O-])n1CCOC(=O)c1cc(Cl)cc(Cl)c1N | inconclusive: 14.1 µM [quencher, side channel, partial curve]
14 | CCOC(=O)CSc1nc2c(sc(=S)n2-c2ccc(OCC)cc2)c(=O)[nH]1 | inconclusive: 28.2 µM [quencher, side channel, single point]
15 | COc1ccc(NC(=O)c2[nH]c(C)c(C(C)=O)c2C)cc1Cl | inactive
16 | COc1ccccc1N1CCN(CC(=O)Nc2cc(F)ccc2C)CC1 | inconclusive: 8.91 µM [fluorescent, side channel, partial curve]
17 | O=C(Nc1ccccc1Br)c1cc(=O)c2ccccc2o1 | inconclusive: 39.8 µM [fluorescent, side channel, single point]
18 | CCCN(CCC)C(=O)CSc1nc2n[nH]c(C)c2c(=N)n1-c1ccc(OCC)cc1 | inconclusive: 8.91 µM [inhibitor, single point]
19 | Cc1ccc(-c2nnc(-c3cccc(Br)c3)o2)cc1 | inconclusive: 39.8 µM [inhibitor, single point]

Row | SMILES | Potency
20 | Cc1ccc(-c2cc(C(=O)N/N=C/c3c[nH]c4ccccc34)[nH]n2)cc1 | inconclusive: 12.6 µM [quencher, side channel, partial curve]
21 | Cc1nc(S/C(=C/c2ccc(-c3cccc(Cl)c3)o2)C(=O)O)n[nH]1 | inconclusive: 28.2 µM [quencher, side channel, partial curve]
22 | COc1ccccc1C(CCNCc1ccccc1)c1ccc(OC(C)C)cc1 (configuration not stated) | inconclusive: 5.62 µM [fluorescent, side channel, full curve]
23 | CC(=O)OC1CC2C(C)(C)C(O)C=C[C@@]2(C)C2CC[C@@]3(C)C(c4ccoc4)OC(=O)C4OC43[C@]12C (some centres not stated) | inactive
24 | Cn1cccc1C(=O)N/N=C/c1c(Cl)cccc1Cl | inactive
25 | Cc1cccc(NC(=O)c2cccc(N3C(=O)C4CCC(C)CC4C3=O)c2)c1C (configuration not stated) | inconclusive: 35.5 µM [inhibitor, single point]
26 | CCc1ccc2c(Cl)c(C(=O)N/N=C/c3c[nH]c4ccccc34)sc2c1 | inconclusive: 1.58 µM [quencher, side channel, full curve, poor fit]
27 | CCCCCCCCCCOC(=O)Cn1c(COc2cccc(OC)c2)[n+](C)c2ccccc21 | inconclusive: 5.62 µM [fluorescent, side channel, partial curve]
28 | C=CCn1c(-c2cccn(Cc3ccc(Cl)cc3)c2=O)n[nH]c1=S | inconclusive: 39.8 µM [inhibitor, single point]
29 | N#Cc1ccc(-c2cccnc2)nc1SCC(=O)Nc1sc2c(c1C#N)CCC2 | inconclusive: 14.1 µM [quencher, side channel, partial curve]
30 | N=C1C(c2nc3ccccc3[nH]2)=C(O)CN1c1ccc(CC(=O)O)cc1 | inconclusive: 17.8 µM [quencher, side channel, single point]
31 | Cc1ccc(C23CC4CC(CC(NC(=O)NN)(C4)C2)C3)cc1 | inconclusive: 3.16 µM [fluorescent, side channel, full curve]
32 | CCc1ccc2c(c1)c(N=NC1=NC(=O)CS1)c(O)n2C | inconclusive: 2.24 µM [quencher, side channel, full curve]
33 | COC(=O)c1[nH]c2ccc(Cl)cc2c1NC(=O)C1CC1 | inactive
34 | O=C(C1=C[C@@H](C2CC2)C[C@@H](OCc2ccc(CO)cc2)O1)N1CCN(Cc2ccccc2)CC1 | inconclusive: 11.2 µM [fluorescent, side channel, partial curve]
35 | Cc1ccc(CN2CCN(CC(=O)NCCCN3CCN(c4ccc(F)cc4)CC3)C2=O)cc1 | inconclusive: 11.2 µM [fluorescent, side channel, partial curve]
36 | Cc1ccc(S(=O)(=O)N2CCOCC2)cc1N/N=C(\C#N)c1nc2ccccc2[nH]1 | inconclusive: 14.1 µM [quencher, side channel, partial curve]
37 | Nc1oc2ccc(F)cc2c(=O)c1C=O | inconclusive: 25.1 µM [quencher, side channel, single point]
38 | Cc1ccc(C[C@H](C(=O)O)N2C(=O)c3ccc(C(=O)O)cc3C2=O)c(C)c1 | inactive

Row | SMILES | Potency
39 | COc1cccc(-c2cc(C(F)(F)F)n3nc(C(=O)N4CCCCC4c4cccnc4)cc3n2)c1 (configuration not stated) | inconclusive: 3.98 µM [fluorescent, side channel, full curve]
40 | Cc1cc(CCC(=O)O)c(C)cc1CCC(=O)O | inactive
41 | COc1ccc(/C=C2\CCc3ccccc3C2=O)cc1Cn1nc(C)cc1C | inconclusive: 8.91 µM [fluorescent, side channel, partial curve]
42 | CCN(CC)S(=O)(=O)c1cccc(-c2nnc(SC(C)C#N)n2Cc2ccccc2)c1 (configuration not stated) | inconclusive: 28.2 µM [inhibitor, single point]
43 | COC(=O)C(C(=O)OC)c1ccc(NC(=O)c2cccc(Cl)c2)cc1 | inconclusive: 35.5 µM [fluorescent, side channel, single point]
44 | O=C(O)c1cc(-c2ccc(Br)s2)nc2ccccc12 | inconclusive: 15.8 µM [quencher, side channel, partial curve]
45 | COc1cccc(-c2nc(NC3CC3)c3ccccc3n2)c1 | inconclusive: 14.1 µM [quencher, side channel, partial curve]
46 | COc1ccc(CC(=O)c2ccc(O)cc2O)cc1 | inconclusive: 10 µM [quencher, side channel, partial curve]
47 | O=C(CCN1c2ccccc2Sc2ccccc21)Nc1ccccc1 | inconclusive: 20 µM [quencher, side channel, partial curve]
48 | COc1ccc(-c2ccc(C#N)c(SCC(=O)Nc3sc4c(c3C#N)CCC4)n2)cc1 | inconclusive: 3.98 µM [quencher, side channel, partial curve]
49 | O=C(NCc1c(F)cccc1F)c1cc(COc2c(F)cccc2F)on1 | inconclusive: 22.4 µM [fluorescent, side channel, partial curve]
50 | Cc1ccc(NC(=O)CC2Nc3ccccc3NC2=O)cc1Cl (configuration not stated) | inconclusive: 15.8 µM [quencher, side channel, partial curve]
51 | O=C(Nc1cccc(Cl)c1)Nc1nnc(-c2ccncc2)s1 | inactive
52 | Cc1cccc(NC(=S)N(Cc2ccc(Br)cc2)Cc2ccc(C(=O)O)cc2)c1 | inconclusive: 10 µM [quencher, side channel, partial curve]
53 | COc1ccc(C(=O)Nc2nnc(S(=O)(=O)N(C)Cc3ccc(F)cc3)s2)cc1OC | inconclusive: 11.2 µM [quencher, single point]
54 | COc1ccc(C(=O)Nc2cccc(OC(=O)c3ccc(C)c(C)c3)c2)cc1 | inconclusive: 28.2 µM [quencher, side channel, single point]
55 | CCCCOc1ccccc1NC(=O)c1ccco1 | inactive
56 | C/C(N)=C(/C#N)C(=O)COC(=O)c1ccccc1Cc1ccccc1 | inconclusive: 25.1 µM [quencher, side channel, partial curve]
57 | O=C(CNS(=O)(=O)c1cccc(Cl)c1)Nc1ccc(-c2nc3ccccc3s2)cc1 | inconclusive: 25.1 µM [quencher, side channel, partial curve]
